The whole screen tested about 54,000 compounds, of which about 120 (0.22%) were called active. The shares of active, inactive and inconclusive entries below differ from those in the screen. The call rests on the fitted dose curve; in most records, active means well fitted inhibition curve with a large enough effect; inconclusive means small, poorly fitted or top-dose-only effect, or effect the other way; inactive means flat fitted curve, though single readings scatter. Potencies of inconclusive entries are left out as doubtful fits.
These compounds were tested against Fumarate hydratase, mitochondrial (Homo sapiens) (UniProt P07954) (assay: Identification of activators of human fumarate hydratase by quantitative high-throughput screening). Details: FH coupled MDH/diaphorase resazurin fluorescence, 15 min; activity change, negative = inhibition: at 79.9 µM (top of the series).
Chain of UniProt P07954 (P07954 whole entry, looked up): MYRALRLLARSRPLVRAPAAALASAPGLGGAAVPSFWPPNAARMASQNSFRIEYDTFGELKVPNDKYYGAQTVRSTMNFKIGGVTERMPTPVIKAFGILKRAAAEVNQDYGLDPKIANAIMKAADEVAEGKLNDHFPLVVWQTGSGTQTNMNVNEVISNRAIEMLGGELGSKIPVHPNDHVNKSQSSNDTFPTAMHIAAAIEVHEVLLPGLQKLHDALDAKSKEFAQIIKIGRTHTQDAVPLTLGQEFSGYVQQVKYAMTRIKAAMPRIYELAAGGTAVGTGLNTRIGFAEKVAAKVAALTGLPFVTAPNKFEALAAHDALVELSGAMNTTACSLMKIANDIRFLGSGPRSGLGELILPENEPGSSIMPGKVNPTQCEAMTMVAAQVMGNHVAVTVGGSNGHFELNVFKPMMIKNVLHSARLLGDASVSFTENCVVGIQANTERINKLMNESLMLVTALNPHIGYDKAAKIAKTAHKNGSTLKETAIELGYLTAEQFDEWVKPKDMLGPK
For `CCOC(=O)c1cnc2c(C)cc(C)cc2c1Nc1ccc(N2CCOCC2)cc1`, the Potency was inconclusive [inhibitor, partial curve].
For `Cc1oc(-c2ccc(Cl)cc2)nc1CN1CCCC(C(=O)NCc2ccc(Cl)cc2)C1` (stereo unspecified), the Potency was inconclusive [inhibitor, partial curve, poor fit].
For `COc1ccc(-c2[nH]c(-c3ccccc3)nc2SCC(=O)Nc2ccc3c(c2)OCO3)cc1`, the Potency was inconclusive [inhibitor, single point].
In the case of `O=c1cc(-c2ccccc2)oc2cc(O)c(O)c(O)c12`, the Potency is reported as inconclusive [inhibitor, single point].
For `CCOC(=O)C(C)NC(=O)c1cc2c(=O)[nH]c3ccc(C)cc3c2s1` (stereo unspecified), the Potency was inconclusive [inhibitor, partial curve, poor fit].
In the case of `COc1cc(OC)c(C2C=C(c3ccc(C)cc3)Nc3c(C(=O)Nc4ccccc4)cnn32)cc1OC` (stereo unspecified), the Potency is reported as inconclusive [inhibitor, single point].
For `COc1ccc(-n2c(=O)c3c(C)c(C)sc3n(Cc3ccc(F)cc3)c2=O)c(OC)c1`, the Potency was inconclusive [inhibitor, partial curve, poor fit].
With `O=c1[nH]c2cc(C(F)(F)F)ccc2n1-c1cc(C(F)(F)F)ccc1O` the Potency was inconclusive [inhibitor, single point].
In the case of `CCOc1ccccc1NS(=O)(=O)c1c(C(=O)OC)sc2cccc(F)c12`, the Potency is reported as inconclusive [inhibitor, partial curve, poor fit].
`COc1ccc(NC(=O)c2oc3ccc4c(c3c2C)C(=O)CC(C)(C)O4)cc1OC` was tested, and the Potency was inconclusive [inhibitor, partial curve, poor fit].
In the case of `CCc1ccc(OCC2c3cc(OC)c(OC)cc3CCN2C(=O)Cc2ccc(OC)c(OC)c2)cc1` (stereo unspecified), the Potency is reported as inconclusive [inhibitor, partial curve, poor fit].
For `NC(=O)[C@H](Cc1ccccc1)NC(=O)[C@H](CCCN=C(N)N)NC(=O)C12CC3CC(CC(C3)C1)C2`, the activity change, negative = inhibition was inactive: 5.49% [at 13.5 µM].
`CCN(CC)CCCNC(=O)c1ccc2nc(CCc3ccccc3)oc2c1` was tested, and the Potency was inconclusive [inhibitor, full curve, poor fit].
For `Cc1c(C(=O)N(C)c2cccc(C(F)(F)F)c2)sc2nc3n(c(=O)c12)CCCCC3`, the Potency was inconclusive [inhibitor, partial curve, poor fit].
For `Cc1cccc(NC(=O)CSc2nnc(CNC(=O)c3c(F)cccc3Cl)o2)c1C`, the Potency was inconclusive [inhibitor, partial curve, poor fit].
With `CCOC(=O)C1CCN(S(=O)(=O)c2cc(-c3cc(C)no3)ccc2C)CC1` the Potency was “inactive”.
With `O=C(COc1ccc(F)cc1)Nc1ccc2nc(SCc3ccccc3)sc2c1` the Potency was “inactive”.
With `O=C(CC1(O)C(=O)N(CCc2ccccc2)c2ccc(Br)cc21)c1ccccc1O` (stereo unspecified) the Potency was inconclusive [inhibitor, single point].
With `O=C(c1ccc2c(Cl)c3c(nc2c1)CCCC3)N1CCN(c2cccc(Cl)c2)CC1` the Potency was inconclusive [inhibitor, partial curve, poor fit].
For `Cc1ccc(Cl)cc1N1CCN(C(=O)Cn2cnc3nc4c(cc3c2=O)CCCC4)CC1`, the Potency was inconclusive [inhibitor, partial curve].
`CCC(=C(c1ccccc1)c1ccc(OCCN(C)C)cc1)c1ccccc1` was tested, and the Potency was “inactive”.
For `Cc1ccc(NS(=O)(=O)c2cc3c(cc2NC(C)CO)NC(=O)CC3)cc1C` (stereo unspecified), the Potency was “inactive”.
With `Cc1ccc(/C=C/c2onc(C)c2S(=O)(=O)N2CCC(C(=O)N3CCOc4ccccc43)CC2)cc1` the Potency was inconclusive [activator, partial curve].
In the case of `CCCC1=CC2=C(CO1)C(=O)C(C)(O)C(OC(=O)c1c(C)cc(OC)cc1O)C2` (stereo unspecified), the Potency is reported as “inactive”.
`CCCCc1ccc(NC(=O)COc2cccc3c(=O)n(C)ccc23)cc1` was tested, and the Potency was “inactive”.
In the case of `Cc1ccc(NC(=O)C2CCCN(c3nnc(-n4c(C)ccc4C)s3)C2)cc1Cl` (stereo unspecified), the Potency is reported as inconclusive [inhibitor, partial curve, poor fit].
With `Cc1ccc(NC(=O)N2CCC(CN3CCC(C)CC3)CC2)cc1F` the Potency was inconclusive [activator, full curve, poor fit].
For `CCC(=O)OCCCNc1nc(-c2ccc(Cl)cc2)nc2ccccc12`, the Potency was inconclusive [inhibitor, single point].
With `Cc1ccc(NC(=O)CCNS(=O)(=O)c2cccc3nsnc23)cc1` the Potency was “inactive”.
In the case of `Cc1ccc(Cl)cc1N1CCN(C(=O)C2CCN(Cc3nc(-c4ccc(Cl)cc4)oc3C)CC2)CC1`, the Potency is reported as inconclusive [inhibitor, partial curve, poor fit].
For `COc1ccc(N2CCN(C(=O)c3oc4ccccc4c3NC(=O)c3ccccc3OC)CC2)cc1`, the Potency was inconclusive [inhibitor, partial curve, poor fit].
In the case of `CC1=C(C(=O)OC2CCCC2)C(c2ccccc2Cl)CC(=O)N1` (stereo unspecified), the Potency is reported as “inactive”.
`Cc1ccc(Cl)cc1N1CCN(C(=O)C2CCN(Cc3nc(-c4cccc(Cl)c4)oc3C)CC2)CC1` was tested, and the Potency was “inactive”.
With `Cc1cccc(-c2nc(SCC(=O)Nc3ccc4c(c3)OCCO4)c(-c3ccccc3)[nH]2)c1` the Potency was inconclusive [inhibitor, single point].
`CC(C)(C)c1ccc(C(=O)CCCN2CCC(OC(c3ccccc3)c3ccccc3)CC2)cc1` was tested, and the Potency was inconclusive [inhibitor, partial curve, poor fit].
In the case of `COc1ccc(-c2cnc(C)o2)cc1S(=O)(=O)Nc1ccc(C)c(N(C)C)c1`, the Potency is reported as inconclusive [inhibitor, full curve, poor fit].
`CCOc1ccc(CNS(=O)(=O)c2cc(-c3cc(C)no3)ccc2C)cc1OC` was tested, and the Potency was “inactive”.
`C[C@@H](Oc1cc(-n2cnc3ccc(OC4CCN(C)CC4)cc32)sc1C(N)=O)c1ccccc1Cl` was tested, and the Potency was “inactive”.
In the case of `Cc1cccc(NC(=O)CCn2nc(-c3ccccc3)c3ccccc3c2=O)c1`, the Potency is reported as inconclusive [inhibitor, partial curve, poor fit].
With `CC(C)(C)n1nc(Cc2cccc([N+](=O)[O-])c2)c2c(N)ncnc21` the Potency was “inactive”.
With `CCOC(=O)c1cc(-c2ccc(C)cc2)n(CCC(=O)Nc2ccc(OC)c(OC)c2)c1C` the Potency was inconclusive [inhibitor, partial curve, poor fit].
For `COc1ccc(NC(=O)C2CCCN2S(=O)(=O)c2ccc3nc(-c4ccccc4)[nH]c3c2)cc1` (stereo unspecified), the Potency was inconclusive [inhibitor, single point].
With `Cc1cccc(-c2nc(SCC(=O)Nc3ccc4c(c3)OCO4)c(-c3ccccc3)[nH]2)c1` the Potency was inconclusive [inhibitor, single point].
With `CCn1c(C)c(C)c2cc(C(=O)NCCc3ccc(C)cc3)ccc21` the Potency was inconclusive [inhibitor, partial curve, poor fit].
`COc1ccc(CCNC(=O)CCS(=O)(=O)c2ccc3c(c2)oc(=O)n3C)cc1OC` was tested, and the Potency was inconclusive [inhibitor, partial curve].
With `CCN1CCC(N(Cc2ccc3c(c2)OCO3)C(=O)Nc2ccc(Br)c(C)c2)CC1` the Potency was “inactive”.
`C[C@H](O)[C@H](O)/C=C/c1cccc(O)c1CO` was tested, and the Potency was “inactive”.
`COc1cccc(-c2ccc3c(N)c(C(=O)Nc4ccc(C)c(F)c4)sc3n2)c1` was tested, and the Potency was inconclusive [inhibitor, single point].
For `COc1ccccc1N1CCN(C(CNC(=O)C(=O)NCCc2ccccc2)c2cccnc2)CC1` (stereo unspecified), the Potency was “inactive”.
With `COc1cccc(OCc2nc3ccccc3n2CCOc2cccc(C)c2)c1` the Potency was inconclusive [inhibitor, single point].
For `COc1ccc(NS(=O)(=O)c2ccc3[nH]c4c(c3c2)CCCCCC4)cc1`, the Potency was inconclusive [inhibitor, single point].
In the case of `Cc1cc(N=Nc2ccc(S(=O)(=O)Nc3ccccn3)cc2)c(N)cc1O`, the Potency is reported as inconclusive [inhibitor, single point].
With `COc1cccc(OCC(=O)Nc2nnc3n2CCS3)c1` the Potency was inconclusive [activator, partial curve, poor fit].
For `CCc1ccc(C2=C(C)C(N3CCC(C(=O)NCCc4ccco4)CC3)=NS2(=O)=O)cc1`, the Potency was inconclusive [inhibitor, partial curve, poor fit].
In the case of `COc1ccc(C(=O)Nc2ccc(N3CCOCC3)c(C(F)(F)F)c2)cc1OC`, the Potency is reported as inconclusive [inhibitor, partial curve, poor fit].
For `CCOC(=O)c1c(NC(=O)COc2ccc(Cl)cc2C)sc(C(C)=O)c1C`, the Potency was inconclusive [inhibitor, single point].
In the case of `Cc1ccc2oc(-c3cc(NC(=O)c4cccs4)cc(C)c3O)nc2c1`, the Potency is reported as “inactive”.
With `CCOc1ccc(-c2cc(C(=O)N3CCN(c4cccc(C(F)(F)F)c4)CC3)c3ccccc3n2)cc1` the Potency was inconclusive [inhibitor, single point].
`CCOC(=O)c1cc(-c2ccc(OC)cc2)n(CCC(=O)Nc2nc3ccc(OCC)cc3s2)c1C` was tested, and the Potency was inconclusive [inhibitor, single point].
For `CC1=C(C(=O)Nc2ccc(Cl)cc2)C(c2ccc(C(F)(F)F)cc2)n2nnnc2N1` (stereo unspecified), the Potency was “inactive”.
With `COc1cc2c(cc1OCCCN1CCCC1)N=C(N)C21CCC1` the Potency was “inactive”.

From PubChem BioAssay AID1347055 (National Center for Advancing Translational Sciences (NCATS), 2019)
Further: the screen sought activators but most active calls are inhibition curves; nearly all actives have a fitted effect of over 45% in size.
On the % scale 0 is the no-effect control and ±100 the full control effect; potency means the concentration at half of the fitted maximal effect; tags describe the fitted curve by direction and shape.
